In ChEMBL document CHEMBL1201862, “PubChem BioAssay data set” (2004):

Each compound was assayed on NCI-H322M (assay: NCI tumour cell line growth inhibition, 48 h).
In the case of `O=C(NCCCCN(CCCNC(=O)C(F)(F)F)Cc1ccc2ccccc2c1)C(F)(F)F`, the GI50 is reported as inactive: 18.3 µM. `CCOC(=O)/C=C\c1c(Cl)n(-c2ccccc2)c(=O)n(-c2ccccc2)c1=O` was tested, and the GI50 was inactive: 20.1 µM. For `O=C(Nc1ccccc1)c1cc(S(=O)(=O)N2CCNNC2=O)c(S)cc1Cl`, the GI50 was inactive: 32 µM. For `CCNCC(O)c1ccc(N)c([N+](=O)[O-])c1` (stereo unspecified), the GI50 was inactive: > 100 µM. In the case of `COc1cc2oc3cc(=O)cc4oc(-c5ccccc5)cc(c2c2c1CCC(c1ccccc1)O2)c43` (stereo unspecified), the GI50 is reported as inactive: > 100 µM. In the case of `CCN1C(=O)C(=CN)C(=O)N(CC)C1=O`, the GI50 is reported as inactive: > 100 µM. `Cc1ccc(/C=C2\CN(C)CC3C(c4ccc(C)cc4)=C(C#N)C(=O)NC23)cc1` (stereo unspecified) was tested, and the GI50 was inactive: > 50 µM. In the case of `COc1ccc(-c2c(-c3ccc(OC)cc3)n3c(=O)n(C)c(=O)n23)cc1`, the GI50 is reported as inactive: > 100 µM. `O=C1c2ccccc2C(=O)c2c(NCCNC(=O)C3CCCN3)ccc(NCCNC(=O)C3CCCN3)c21` (stereo unspecified) was tested, and the GI50 was active: < 0.01 µM. For `C=CCn1c(-c2ccc(/N=N/Nc3ccc(-c4n[nH]c(=S)n4CC=C)cc3)cc2)n[nH]c1=S`, the GI50 was inactive: 4.41 µM. In the case of `C=CCN(c1cc(OC)c2c(c1[N+](=O)[O-])C(C)(SC)C(=O)N2)S(C)(=O)=O` (stereo unspecified), the GI50 is reported as inactive: 97.3 µM. `CCC(C)[C@H](NC(=O)[C@H](Cc1ccccc1)NC(=O)N(CC)c1ccccc1)C(=O)N[C@@H](CC(C)C)C(=O)OC` (stereo partly specified) was tested, and the GI50 was inactive: 45.4 µM. With `COC(=O)C1=C(C[S+]([O-])c2ccc([N+](=O)[O-])cc2[N+](=O)[O-])C2C=CC1C2` (stereo unspecified) the GI50 was inactive: > 100 µM. With `COCc1nc2c(OC)c(-c3nc4ccc(N5CCN(C)CC5)nc4[nH]3)cc(OC)c2n1C` the GI50 was inactive: 17.8 µM. With `COc1cc2c(cc1OCCCC(=O)Nc1cc(C(=O)Nc3cc(C(=O)Nc4cc(C(=O)NCCCN(C)C)n(C)c4)n(C)c3)n(C)c1)N=C[C@@H]1CCCN1C2=O` the GI50 was inactive: 13.9 µM. `N#CCc1nc2c(s1)C(=O)c1ccccc1C2=O` was tested, and the GI50 was inactive: 23.2 µM. In the case of `Cc1nc2c(n1CCO)C(=O)c1ccccc1C2=O`, the GI50 is reported as inactive: 34.4 µM. For `CCCCCC/C=C1\CCC(CN2CCCC2)C1=O` (stereo unspecified), the GI50 was inactive: 19.7 µM. With `COc1cc(C(N)=O)cc(NC(=O)/C=C/c2ccccc2)c1OC` the GI50 was inactive: 35.2 µM. For `CC1=NNC(=O)C1C1(C(=O)O)CC(c2c[nH]c3ccccc23)=NC(=S)N1` (stereo unspecified), the GI50 was inactive: 55.8 µM. In the case of `COc1ccc2c(c1)C1Oc3ccccc3CC1(O)CO2` (stereo unspecified), the GI50 is reported as inactive: > 100 µM. In the case of `CCCCn1c(C)c(C)c2c1NN=C(C#N)S2(=O)=O`, the GI50 is reported as inactive: > 100 µM. With `CCOC(=O)C1=C(c2ccccc2)NC(c2ccccc2)=C(C(=O)OCC)c2c1c(=O)cc[nH]c2=O` the GI50 was inactive: > 100 µM. For `FC(F)(F)C1(c2ccccc2)SCc2nc3ccccc3n21` (stereo unspecified), the GI50 was inactive: > 100 µM. With `CC(C)C1SCc2nc3ccccc3n21` (stereo unspecified) the GI50 was inactive: > 100 µM. `CC1=NN(c2cc(Cl)c(S(=O)(=O)O)cc2Cl)C2(C1)C(Cl)C(=O)N2c1nc2ccccc2s1` (stereo unspecified) was tested, and the GI50 was inactive: > 100 µM. For `CCOC(=O)C(C)(C)Oc1ccc2c(-c3ccc(Cl)cc3)cc(=O)oc2c1`, the GI50 was inactive: > 100 µM. `CCOC(=O)C(=O)/C(=C\NC(=S)Nc1ccccc1Cl)C(=O)OCC` was tested, and the GI50 was inactive: > 100 µM. For `COc1ccc2c(c1)C(N)=C(Cc1ccncc1)C2=O`, the GI50 was inactive: > 100 µM. In the case of `Cc1ccc(S(=O)(=O)NC(CCC(=O)NN)C(=O)NN)cc1` (stereo unspecified), the GI50 is reported as inactive: > 100 µM. `C#C[C@]1(O)CC[C@H]2[C@@H]3CCC4=C/C(=N\OCCN5CCCCC5)CC[C@]4(C)[C@H]3CC[C@@]21C` was tested, and the GI50 was inactive: 11.7 µM. With `CCC(C)C(Nc1c2ccccc2nc2c(C(=O)NCCN(C)C)cccc12)C(=O)O` (stereo unspecified) the GI50 was inactive: 12.9 µM. In the case of `C=C1C2CCC3C4(C)CCCC(C)(C(=O)O)C4CCC3(C2)C1OC(=O)/C(C)=C/C` (stereo unspecified), the GI50 is reported as inactive: 53 µM. With `COc1ccc(N(C(=O)NCCO)c2ccccc2)cc1` the GI50 was inactive: > 100 µM. For `NC(=O)N/C=C1\C(=O)Oc2ccccc2C1=O`, the GI50 was inactive: 75.3 µM. For `CN1C(=O)N(C)C(N2CCCC2)c2c1nc1ccccn1c2=O` (stereo unspecified), the GI50 was inactive: 91.2 µM. In the case of `COC(=O)C1=CON2C3CC4CC(C3)CC(C4)C12C` (stereo unspecified), the GI50 is reported as inactive: > 100 µM. For `CCCCCCCCCCCCCCCCCCOCC(CO[PH](=O)O)OCCCCCCCCCCCCCCCCCC` (stereo unspecified), the GI50 was inactive: > 50 µM. With `COC1=CC(=O)O/C1=C(\OC)C1OC1c1ccccc1` (stereo unspecified) the GI50 was inactive: > 100 µM. `CSC1=N/C(=C\c2cccs2)C(=O)N1CN1CCCCC1` was tested, and the GI50 was inactive: > 100 µM. `O=C(Nc1ccc(Br)cc1)C(=O)C(C(=O)c1ccccc1F)C1OC(=O)c2ccccc21` (stereo unspecified) was tested, and the GI50 was inactive: 29.2 µM. For `O=S(O)c1cc(Cl)cc(Cl)c1OCc1ccccc1`, the GI50 was inactive: > 100 µM. `CC(C)Cc1cc(CCC(=O)Nc2ccccc2[N+](=O)[O-])nc(NC#N)n1` was tested, and the GI50 was inactive: > 100 µM. `O=C(N/N=C/c1cc(Cl)cc(Cl)c1O)c1ccncc1` was tested, and the GI50 was inactive: > 100 µM. `O=C(/C=C/c1ccc[nH]1)c1ccccc1` was tested, and the GI50 was inactive: > 100 µM. For `COC(=O)C(Cc1cc(OC)c(OC)c(OC)c1)c1ccc(OC)cc1` (stereo unspecified), the GI50 was inactive: > 100 µM.

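Cultured in 96-well plates, cells were exposed to test compound for 48 hours across five concentrations. GI50 marks 50% less growth.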 The source made the active and inactive calls. Cut-off read from the data, not from the text of the source: active = GI50 up to about 1.1 µM and inactive = higher.
